Experimental data taken from paper PMC10036327.
No constants are given. Whether binding was seen depends on the method and setting. In cells and extracts the contact can be indirect. Some binding calls cover weakened binding; strength is not graded here. For part of these data: Tags and fused reporters may be left off the sequences shown.

Experiments:
[1] = target: T1, Smad4, endogenous in HaCaT cells (human (endogenous in HaCaT)), Q13485; experiment: co-IP; endogenous proteins, HaCaT cells with or without stable expression of ABL1, treated with TGF-β or SB431542; IP-western blotting; details: remark: other sources report otherwise
T1 chain: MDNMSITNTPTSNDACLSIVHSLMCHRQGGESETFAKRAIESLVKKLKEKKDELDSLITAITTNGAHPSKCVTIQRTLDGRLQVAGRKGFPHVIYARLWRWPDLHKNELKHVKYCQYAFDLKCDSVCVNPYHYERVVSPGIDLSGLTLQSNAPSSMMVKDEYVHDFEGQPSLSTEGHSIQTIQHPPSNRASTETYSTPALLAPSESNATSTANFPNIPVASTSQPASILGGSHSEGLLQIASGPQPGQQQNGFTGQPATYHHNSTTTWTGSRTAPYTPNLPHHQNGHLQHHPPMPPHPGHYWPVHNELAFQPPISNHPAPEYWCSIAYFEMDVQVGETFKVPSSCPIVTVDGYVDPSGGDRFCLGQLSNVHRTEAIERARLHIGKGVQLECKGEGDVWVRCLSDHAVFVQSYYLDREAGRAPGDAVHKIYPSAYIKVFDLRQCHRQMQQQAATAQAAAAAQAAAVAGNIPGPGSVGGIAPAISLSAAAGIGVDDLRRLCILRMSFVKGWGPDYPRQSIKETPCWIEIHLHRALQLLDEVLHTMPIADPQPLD

[2] = target: T2, FLAG-Smad4, Q13485; experiment: co-IP; HEK293T cells transiently transfected with tagged expression plasmids; lysates incubated with primary antibody (anti-FLAG as in Fig. 3a) and protein A Sepharose at 4 °C for 4 h; western blotting; in Fig. 5g with co-expressed FLAG-ABL1 or FLAG-ABL1-KD; details: remark: other sources report otherwise
T2 chain: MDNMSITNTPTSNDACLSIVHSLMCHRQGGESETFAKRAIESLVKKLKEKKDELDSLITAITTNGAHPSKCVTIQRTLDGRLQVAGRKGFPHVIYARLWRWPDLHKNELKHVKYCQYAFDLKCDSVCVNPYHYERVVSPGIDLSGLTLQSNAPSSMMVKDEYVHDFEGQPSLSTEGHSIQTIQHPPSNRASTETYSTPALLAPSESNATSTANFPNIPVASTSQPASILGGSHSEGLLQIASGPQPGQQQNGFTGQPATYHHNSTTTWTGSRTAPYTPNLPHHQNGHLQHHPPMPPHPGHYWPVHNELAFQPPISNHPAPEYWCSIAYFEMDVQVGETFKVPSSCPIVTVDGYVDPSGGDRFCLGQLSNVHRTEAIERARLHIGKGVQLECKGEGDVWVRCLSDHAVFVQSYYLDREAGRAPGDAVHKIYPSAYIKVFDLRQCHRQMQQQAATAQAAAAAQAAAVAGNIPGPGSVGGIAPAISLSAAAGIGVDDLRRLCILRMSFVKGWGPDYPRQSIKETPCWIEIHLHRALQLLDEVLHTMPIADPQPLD

B1: Smad3 in HaCaT cells, P84022 1-425 (protein)
chain: MSSILPFTPPIVKRLLGWKKGEQNGQEEKWCEKAVKSLVKKLKKTGQLDELEKAITTQNVNTKCITIPRSLDGRLQVSHRKGLPHVIYCRLWRWPDLHSHHELRAMELCEFAFNMKKDEVCVNPYHYQRVETPVLPPVLVPRHTEIPAEFPPLDDYSHSIPENTNFPAGIEPQSNIPETPPPGYLSEDGETSDHQMNHSMDAGSPNLSPNPMSPAHNNLDLQPVTYCEPAFWCSISYYELNQRVGETFHASQPSMTVDGFTDPSNSERFCLGLLSNVNRNAAVELTRRHIGRGVRLYYIGGEVFAECLSDSAIFVQSPNCNQRYGWHPATVCKIPPGCNLKIFNNQEFAALLAQSVNQGFEAVYQLTRMCTIRMSFVKGWGAEYRRQTVTSTPCWIELHLNGPLQWLDKVLTQMGSPSIRCSSVS
[1]
  binding: binds

B2: HA-Smad2, Q15796 1-467 (protein)
chain: MSSILPFTPPVVKRLLGWKKSAGGSGGAGGGEQNGQEEKWCEKAVKSLVKKLKKTGRLDELEKAITTQNCNTKCVTIPSTCSEIWGLSTPNTIDQWDTTGLYSFSEQTRSLDGRLQVSHRKGLPHVIYCRLWRWPDLHSHHELKAIENCEYAFNLKKDEVCVNPYHYQRVETPVLPPVLVPRHTEILTELPPLDDYTHSIPENTNFPAGIEPQSNYIPETPPPGYISEDGETSDQQLNQSMDTGSPAELSPTTLSPVNHSLDLQPVTYSEPAFWCSIAYYELNQRVGETFHASQPSLTVDGFTDPSNSERFCLGLLSNVNRNATVEMTRRHIGRGVRLYYIGGEVFAECLSDSAIFVQSPNCNQRYGWHPATVCKIPPGCNLKIFNNQEFAALLAQSVNQGFEAVYQLTRMCTIRMSFVKGWGAEYRRQTVTSTPCWIELHLNGPLQWLDKVLTQMGSPSVRCSSMS
[2]
  binding: binds

B3: HA-Smad3, P84022 1-425 (protein)
chain: MSSILPFTPPIVKRLLGWKKGEQNGQEEKWCEKAVKSLVKKLKKTGQLDELEKAITTQNVNTKCITIPRSLDGRLQVSHRKGLPHVIYCRLWRWPDLHSHHELRAMELCEFAFNMKKDEVCVNPYHYQRVETPVLPPVLVPRHTEIPAEFPPLDDYSHSIPENTNFPAGIEPQSNIPETPPPGYLSEDGETSDHQMNHSMDAGSPNLSPNPMSPAHNNLDLQPVTYCEPAFWCSISYYELNQRVGETFHASQPSMTVDGFTDPSNSERFCLGLLSNVNRNAAVELTRRHIGRGVRLYYIGGEVFAECLSDSAIFVQSPNCNQRYGWHPATVCKIPPGCNLKIFNNQEFAALLAQSVNQGFEAVYQLTRMCTIRMSFVKGWGAEYRRQTVTSTPCWIELHLNGPLQWLDKVLTQMGSPSIRCSSVS
[2]
  binding: binds
